The RNAGym collection of RNA variant scans (doi:10.1101/gad.245936.114)
Variants at the floor of the assay are shown more often than the library holds them.

B1: tRNA (parent)
chain: CUCUCGGUAGCCAAGUUGGUUUAAGGCGCAAGACUUUAAUUUAUCACUACGAAAUCUUGAGAUCGGGCGUUCGACUCGCCCCCGGGAGAUUUUUUCCUCGAGCAA

Variants of: B1
Test: nonsense suppression (GFP-seq) (ratio to wild type); higher = more function; SUP4oc tRNA, yeast GFP reporter sort-seq
Summary of the method: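 Nonsense suppression (GFPSEQ) is the median GFP/RFP ratio of each sorting bin, weighted by the variant's estimated share of cells in that bin and expressed relative to the unmutated parent tRNA. Yeast strains carried genome-integrated variants of an ochre-suppressor tRNA from a library with ~3% random mutations, plus a galactose-driven GFP ochre reporter and RFP, and were grown in raffinose/galactose medium containing 80 mg/L adenine. Cells were sorted into GFP/RFP bins, each bin was Illumina-sequenced (phred ≥30), and variants were kept only with ≥100 reads and ≥30 cells.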

| Variant | nonsense suppression |
| --- | --- |
| C1G U2A G18U | ≤ 0.026 |
| C1U A62G C80A | ≤ 0.026 |
| C1G G18A | ≤ 0.026 |
| C1G G18U | ≤ 0.026 |
| C1G G28A C83A | ≤ 0.026 |
| C1G G61A C75A | ≤ 0.026 |
| C1G C27A A30U G85A | ≤ 0.026 |
| C1U A30C U71G | ≤ 0.026 |
| C1U U20A G73C | 0.722 |
| C1G G61A U76C | 0.0371 |
| C1U U55A G85A | ≤ 0.026 |
| C1U G7U U20C A54C | ≤ 0.026 |
| C1G G19U A60C U71A | ≤ 0.026 |
| C1G G25A U35C | ≤ 0.026 |
| C1U C68G | ≤ 0.026 |
| C1U A31U U55G C56A U76A | ≤ 0.026 |
| C1G A23U | ≤ 0.026 |
| C1G G26C U70A | ≤ 0.026 |
| C1U A33G U55A | ≤ 0.026 |
| C1G U20C | 0.0266 |
| C1G C56G | ≤ 0.026 |
| C1G G67C | ≤ 0.026 |
| U2A A13U U57C U71G U76A C79U | ≤ 0.026 |
| C1U G6A A31C U58A G61C U76C | ≤ 0.026 |

| Variant | nonsense suppression |
| --- | --- |
| U2A A62U G66U C68G C80U G88U | ≤ 0.026 |
| C1U A9U U20A G28U | ≤ 0.026 |
| C1U C27G G69C U70A | ≤ 0.026 |
| C1U A23C G59C U71C G86A | ≤ 0.026 |
| U2A A13U | 0.0284 |
| U2A A33C | ≤ 0.026 |
| C1G G6A A62U G84C | ≤ 0.026 |
| C1U C34G A60C | ≤ 0.026 |
| U2A C5G | ≤ 0.026 |
| C1U G15A C27U C29G U76A | ≤ 0.026 |
| U2A A30U | 0.031 |
| C1U C56A G61C | ≤ 0.026 |
| C1G G66C U71A | ≤ 0.026 |
| C1U U58A | ≤ 0.026 |
| U2A A9C C29U C68A | ≤ 0.026 |
| C1U C29G | ≤ 0.026 |
| C1U U57G | ≤ 0.026 |
| C1G U76G | ≤ 0.026 |
| U2A A14C G59U G61C | ≤ 0.026 |
| C1U C3A C29A | ≤ 0.026 |
| C1U C11G G18A A60U A62U | ≤ 0.026 |
| C1U U55C U71G | ≤ 0.026 |
| C1G G86A | ≤ 0.026 |
| C1U U76G | ≤ 0.026 |

| Variant | nonsense suppression |
| --- | --- |
| C1G A87G | ≤ 0.026 |
| U2A C12U G61U U63A | ≤ 0.026 |
| C1G G65A G88A | ≤ 0.026 |
| C1U C3U | ≤ 0.026 |
| C1U A9C G25C C34U | ≤ 0.026 |
| C1G U17G A54G | ≤ 0.026 |
| C1G C82G | ≤ 0.026 |
| C1U U70G C83G | ≤ 0.026 |
| C1U U58G C77A | ≤ 0.026 |
| U2A A13G C34G G69A | ≤ 0.026 |
| C1U C3A U8A U17C | ≤ 0.026 |
| C1G C5U G10U | ≤ 0.026 |
| C1G G15U U21G G69U | ≤ 0.026 |
| C1U G7A A62C U71C | ≤ 0.026 |
| C1U U2C C11G G69C | ≤ 0.026 |
| U2A A74G | ≤ 0.026 |
| C1U U70C G84U | ≤ 0.026 |
| C1U G6C G10U U58C | ≤ 0.026 |
| C1U U17C U58A U70C | ≤ 0.026 |
| C1U G28U G84A | ≤ 0.026 |
| C1G U57G C72A C77G | ≤ 0.026 |
| U2A A89U | ≤ 0.026 |
| U2A C3U U20C G65A | ≤ 0.026 |
| C1G C11G U57G G67A G88A | ≤ 0.026 |

| Variant | nonsense suppression |
| --- | --- |
| C1U C34U | ≤ 0.026 |
| C1U C34A | ≤ 0.026 |
| C1U U70C U76C C82G | ≤ 0.026 |
| C1U U20G A30G G59C | ≤ 0.026 |
| C1U U4A C12G G32C G67U G88U | ≤ 0.026 |
| C1U G65U | ≤ 0.026 |
| C1U U8A G15C C72G G88A | ≤ 0.026 |
| C1U A33G U57C | ≤ 0.026 |
| C1U G26A U57C | ≤ 0.026 |
| C1G U21A U70A C83G | ≤ 0.026 |
| C1U C11U | ≤ 0.026 |
| C1U U4G G78A | ≤ 0.026 |
| C1G A30C G32C | ≤ 0.026 |
| U2A A13C A31U | ≤ 0.026 |
| C1G U22C | ≤ 0.026 |
| C1G U22G | ≤ 0.026 |
| C1G A30U A60G | ≤ 0.026 |
| U2A A31C | ≤ 0.026 |
| C1G A74C | ≤ 0.026 |
| C1G C5G U70G A74C | ≤ 0.026 |
| U2A A23U G67U | ≤ 0.026 |
| C1U U4A A23U G84A | ≤ 0.026 |
| C1G U20C A31U | ≤ 0.026 |
| C1U G6U G28C C80A G88A | ≤ 0.026 |

| Variant | nonsense suppression |
| --- | --- |
| C1U A24U G84A | ≤ 0.026 |
| C1U U55G U58G | ≤ 0.026 |
| C1G C11U | ≤ 0.026 |
| C1G C11A | ≤ 0.026 |
| C1U C29A A33U | ≤ 0.026 |
| C1G U22G A23U A33C U63A | ≤ 0.026 |
| C1G U17C G19A G88A | ≤ 0.026 |
| C1U A13U A74U U76C | ≤ 0.026 |
| C1U G7C U63G C75U | ≤ 0.026 |
| C1U A24C G25U U63A | ≤ 0.026 |
| C1U A23G G66A C82U | ≤ 0.026 |
| U2A A62G G78C | ≤ 0.026 |
| C1U G32C U70A C80G | ≤ 0.026 |
| C1G U4G C11G C64A | ≤ 0.026 |
| C1G G26A G32U G66A | ≤ 0.026 |
| C1G U16G G69C G84A | ≤ 0.026 |
| C1U C3G U55C G84A | ≤ 0.026 |
| C1G A54C | 0.0309 |
| C1G A33C | ≤ 0.026 |
| C1U G6U G7A C12U G59A | ≤ 0.026 |
| C1U A13G A14G U57C A87C | ≤ 0.026 |
| C1U U2G G18U | ≤ 0.026 |
| C1U C27G | ≤ 0.026 |
| C1G C12U A30G G67C C83A | ≤ 0.026 |

| Variant | nonsense suppression |
| --- | --- |
| C1U C82U | ≤ 0.026 |
| C1U C82G | ≤ 0.026 |
| C1U A14G A31G U58G | ≤ 0.026 |
| C1G A30U G78U | ≤ 0.026 |
| C1U G18C G32U C77U | ≤ 0.026 |
| C1G U22G A30U G59A G86U | ≤ 0.026 |
| C1U G61U U76C | ≤ 0.026 |
| C1U C29A U70A | ≤ 0.026 |
| C1U G6C A14G | ≤ 0.026 |
| C1G U4G A9U C11G G19A U57G | ≤ 0.026 |
| C1G G19A G26C | ≤ 0.026 |
| C1U U71G | ≤ 0.026 |
| C1U U71A | ≤ 0.026 |
| C1G U4A C12A | ≤ 0.026 |
| C1U G85A G88U | ≤ 0.026 |
| C1G C12G U22A A31G A60U G67A C77A | ≤ 0.026 |
| C1U C27A A89U | ≤ 0.026 |
| C1U U4C G6C A23C G65C C81A | ≤ 0.026 |
| C1U U22C | ≤ 0.026 |
| C1U C12G | 0.327 |
| C1U A23G C29U C64G | ≤ 0.026 |
| C1U A31C A33U A54G | ≤ 0.026 |
| C1G U17A | ≤ 0.026 |
| C1G U17G | ≤ 0.026 |

| Variant | nonsense suppression |
| --- | --- |
| U2A A24C A33C | ≤ 0.026 |
| C1U U55G C83G | ≤ 0.026 |
| C1G G73A | 0.0631 |
| C1G G69U | ≤ 0.026 |
| U2A A9U G78A | ≤ 0.026 |
| C1U A13C A74G G85A A89U | ≤ 0.026 |
| C1U C27U G66A | ≤ 0.026 |
| C1G U4G C29U | ≤ 0.026 |
| C1U G26U | ≤ 0.026 |
| C1G U63A U70G G85C | ≤ 0.026 |
| C1U A31G U57G | ≤ 0.026 |
| C1G U4C A54C G69A | ≤ 0.026 |
| C1G A31C G78C | ≤ 0.026 |
| C1U G66C G73C A87C | ≤ 0.026 |
| C1G U21C A31U C56A G61U C64U C72U G73A | ≤ 0.026 |
| C1G C11U U17A | ≤ 0.026 |
| C1U A14U | ≤ 0.026 |
| C1U C5U U22C U63C | ≤ 0.026 |
| C1U C3U G10U G59U | ≤ 0.026 |
| U2A A13C U63A | ≤ 0.026 |
| C1U C12G G84C | ≤ 0.026 |
| C1G G66A | ≤ 0.026 |
| C1G G66U | ≤ 0.026 |
